IC50 is the fitted dose that halves viability relative to control wells, and lower means more sensitive; a limit (>, <) means that the fit lies beyond the doses tested. The AUC spans the tested range (256-fold, ending at the top dose) of the same fit; it is 1 without any effect and falls as sensitivity rises. For some assays here: The top dose, if marked as inferred, was calculated from the reported fits. For some assays here: Where an entry number is given, a second screen of the drug exists; the two often differ.
What was measured:
Assay in all cases: Viability of human cancer cell lines after 72 h of drug (GDSC screen)
Elesclomol = compound: CN(NC(=O)CC(=O)NN(C)C(=S)c1ccccc1)C(=S)c1ccccc1 [Elesclomol]; details: top dose 0.2 µM; top dose inferred
Procedure: (§1)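 Human cancer cell lines in 384-well plates, medium with 10% serum, drug for 72 h over a 256-fold dose range (nine 2-fold or five 4-fold steps up to the top dose). Adherent lines were fixed and stained with the nucleic acid dye Syto60, suspension lines read with resazurin; signal relative to control wells, capped at 0 and 100%. One two-parameter sigmoid per drug and line, fitted in a mixed model over all curves with the slope shared within a line.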

Tamoxifen = compound: CC/C(=C(\c1ccccc1)c1ccc(OCCN(C)C)cc1)c1ccccc1 [Tamoxifen]; details: top dose 5 µM
Procedure: as §1

BX-912 = compound: O=C(Nc1cccc(Nc2ncc(Br)c(NCCc3cnc[nH]3)n2)c1)N1CCCC1 [BX-912]; details: top dose 10.24 µM; top dose inferred
Procedure: as §1

OSI-930 = compound: O=C(Nc1ccc(OC(F)(F)F)cc1)c1sccc1NCc1ccnc2ccccc12 [OSI-930]; details: top dose 10.24 µM
Procedure: as §1

LAQ824 = compound: O=C(/C=C/c1ccc(CN(CCO)CCc2c[nH]c3ccccc23)cc1)NO [LAQ824]; details: top dose 1.024 µM; top dose inferred
Procedure: as §1

Masitinib = compound: Cc1ccc(NC(=O)c2ccc(CN3CCN(C)CC3)cc2)cc1Nc1nc(-c2cccnc2)cs1 [Masitinib]; details: top dose 20 µM
Procedure: as §1

Bleomycin = compound: Cc1c(N)nc([C@H](CC(N)=O)NC[C@H](N)C(N)=O)nc1C(=O)N[C@H](C(=O)N[C@H](C)[C@@H](O)[C@H](C)C(=O)N[C@H](C(=O)NCCc1nc(-c2nc(C(=O)NCCC[S+](C)C)cs2)cs1)[C@@H](C)O)[C@@H](OC1OC(CO)C(O)C(O)C1OC1OC(CO)C(O)C(OC(N)=O)C1O)c1cnc[nH]1 [Bleomycin]
Procedure: as §1

HG-5-88-01 = compound: COc1cc(N2CCC(C(N)=O)CC2)ccc1Nc1nc(N)c(Cl)c(Nc2ccccc2S(=O)(=O)C(C)C)n1 [HG-5-88-01]; details: top dose 10 µM; top dose inferred
Procedure: as §1

VNLG/124 = compound: CCCC(=O)OCc1ccc(OC(=O)/C=C(C)/C=C/C=C(C)/C=C/C2=C(C)CCCC2(C)C)cc1 [VNLG/124]; details: top dose 5.12 µM; top dose inferred
Procedure: as §1

NSC-87877 = compound: O=S(=O)(O)c1ccc2cc(N=Nc3cc(S(=O)(=O)O)c4cccnc4c3O)ccc2c1 [NSC-87877]; details: top dose 16 µM; top dose inferred
Procedure: as §1

[1] = top dose 50 µM, screen: GDSC drug entry 1378, top dose inferred
[2] = top dose 64 µM, screen: GDSC drug entry 190

Cell Line | AUC (Elesclomol) | IC50 (Elesclomol) | AUC (Tamoxifen) | IC50 (Tamoxifen) | AUC (BX-912) | IC50 (BX-912) | AUC (OSI-930) | IC50 (OSI-930) | AUC (LAQ824) | IC50 (LAQ824) | AUC (Masitinib) | IC50 (Masitinib) | AUC (Bleomycin; [1]) | IC50 (Bleomycin; [1]) | AUC (Bleomycin; [2]) | IC50 (Bleomycin; [2]) | AUC (HG-5-88-01) | IC50 (HG-5-88-01) | AUC (VNLG/124) | IC50 (VNLG/124) | AUC (NSC-87877) | IC50 (NSC-87877)
VA-ES-BJ (soft tissue, adherent) | 0.426 | 7.74 nM | 0.953 | > 5 µM | 0.94 | > 10.2 µM | 0.976 | > 10.2 µM | 0.507 | 67.1 nM | 0.889 | > 20 µM | 0.414 | 1790 nM | 0.21 | 528 nM | 0.984 | > 10 µM | 0.981 | > 5.12 µM | 0.985 | > 16 µM
VCaP (prostate, adherent) | 0.627 | 28.4 nM | 0.986 | > 5 µM | 0.875 | > 10.2 µM | 0.951 | > 10.2 µM | 0.371 | 27.8 nM | 0.915 | > 20 µM | 0.958 | > 50000 nM | 0.928 | > 64000 nM | 0.862 | 9.11 µM | 0.965 | > 5.12 µM | 0.972 | > 16 µM
RO82-W-1 (thyroid, adherent) | 0.595 | 24.5 nM | 0.978 | > 5 µM | 0.937 | > 10.2 µM | 0.979 | > 10.2 µM | 0.606 | 136 nM | 0.983 | > 20 µM | 0.518 | 3540 nM | 0.855 | > 64000 nM | 0.892 | > 10 µM | 0.983 | > 5.12 µM | 0.983 | > 16 µM
CAL-62 (thyroid, adherent) | 0.613 | 25.2 nM | 0.964 | > 5 µM | 0.926 | > 10.2 µM | 0.972 | > 10.2 µM | 0.449 | 46.8 nM | 0.981 | > 20 µM | 0.224 | 514 nM | 0.476 | 3450 nM | 0.96 | > 10 µM | 0.981 | > 5.12 µM | 0.902 | > 16 µM
KU-19-19 (bladder, adherent) | 0.403 | 6.77 nM | 0.977 | > 5 µM | 0.973 | > 10.2 µM | 0.979 | > 10.2 µM | 0.514 | 70 nM | 0.985 | > 20 µM | 0.178 | 333 nM | 0.934 | > 64000 nM | 0.931 | > 10 µM | 0.987 | > 5.12 µM | 0.978 | > 16 µM
